The results in this text go back to PubChem BioAssay AID1240 (Sanford-Burnham Center for Chemical Genomics, 2008).

The whole screen tested about 50,000 compounds, of which about 800 (1.6%) showed an effect of 50% or more. The list shows a part of the results.

This test has as its target Bcl-2-like protein 10 (Homo sapiens) (UniProt Q9HD36). Kind of test: Phenotype converters, Bcl-B/TR3 peptide binding displacement, primary biochemical FP (AID 1240).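 Also: 0% = Bcl-B with tracer peptide and DMSO and 100% = tracer peptide lacking Bcl-B.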 The following applies: GST-Bcl-B / FITC-TR3 peptide fluorescence polarization; stronger effect = higher value; compound at 3.75 mg/L.
Sequence of UniProt Q9HD36 (Q9HD36 whole entry, looked up): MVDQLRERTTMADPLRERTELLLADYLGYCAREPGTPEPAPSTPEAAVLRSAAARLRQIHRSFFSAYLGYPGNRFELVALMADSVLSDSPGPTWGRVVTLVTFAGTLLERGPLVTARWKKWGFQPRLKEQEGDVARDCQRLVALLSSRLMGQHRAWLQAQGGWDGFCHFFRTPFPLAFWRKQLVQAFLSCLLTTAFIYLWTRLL
Regarding `C/C(=N\Nc1nnc(-c2ccccc2)c(-c2ccccc2)n1)c1cccc([N+](=O)[O-])c1`, the displacement was determined as 4.5%.
Regarding `COc1ccc(/C=N/n2cnnc2)cc1CSc1ccccn1`, the displacement came to 15.4%.
The same measure for `CCOC(=O)NCS(=O)(=O)c1ccc(C)cc1`: 0.6%.
The same measure for `Cc1ccc(-c2nc3ccccc3[nH]2)s1`: 0.7%.
The same measure for `CC(=O)Nc1ccc(C(=O)NCc2ccccn2)cc1`: 14.1%; for `O=C(O)c1ccccc1C(=O)N1CCN(C(=O)c2ccccc2C(=O)O)CC1`: -0.8%.
For `COc1ccc(C2=NN(c3nc(-c4ccc(C)c(C)c4)cs3)C(c3ccc(OC)cc3)C2)cc1` (stereo not given), the displacement was 12.6%.
To `NC(N)=NS(=O)(=O)c1ccc(NC(=S)NC(=O)c2ccccc2)cc1` belongs -1.1%; to `CC(NC(=O)c1ccccc1)c1ccc(Cl)cc1` (stereo not given), 14.5%; to `Cc1ccc(C(NC(N)=O)c2cccc(C)c2)cc1` (stereo not given), -4.2%.
For the compound `CCOc1cc(/C=C2/SC(=S)N(C)C2=O)cc(Br)c1OCc1ccccc1Cl`, the displacement is -6.4%.
`O=C1Nc2ccccc2/C1=N\N1CCN(c2ccccc2)CC1`: the displacement was -9.1%.
The same measure for `Cc1ccccc1NC(=O)c1c(NC(=O)C(C)(C)C)sc2c1CCCC2`: -7.3%; for `O=C(NCc1ccccc1)NC(=O)c1ccncc1`: 1.5%.
On to `COc1ccc(C2C3C(=O)N(c4ccccc4)C(=O)C3ON2c2ccccc2C)cc1` (stereo not given), for which the displacement came to 9.2%.
The same measure for `COc1ccccc1NC1=NC2(CCCC2)N=C(N)N1`: -6.4%.
To `CC(C)(CN)CNc1ccc([N+](=O)[O-])cc1Cl` belongs 6.6%; to `C#CCn1cc(/C=C(/C#N)C(=O)Nc2ccc(OCC)cc2)c2ccccc21`, 5.9%; to `COc1ccc([N+](=O)[O-])cc1-c1ccc(C(=O)O)o1`, -12.5%.
The same measure for `COc1cc(/C=C2\C(=O)N(c3cccc(C(=O)O)c3)N=C2C)cc([N+](=O)[O-])c1O`: 19.4%.
Turning to `CCc1cccc(NC(=O)C(C)Oc2ccc(Cl)cc2Cl)c1` (stereo not given), the displacement was determined as 0.8%.
To `CCCOC(=O)c1ccc(NC(=O)c2cc(I)ccc2Cl)cc1` belongs 2.5%; to `CC(C)(C)c1ccc(C(=O)Nc2ccc3[nH]c(=O)[nH]c3c2)cc1`, 7.2%.
The same measure for `O=C1S/C(=C/c2ccc(Cl)c([N+](=O)[O-])c2)C(=O)N1c1ccccc1`: 3.6%; for `COC(=O)c1cc(C(=O)Nc2ccc(C)c(Cl)c2)cc([N+](=O)[O-])c1`: 5.2%.
To `COc1ccc([N+](=O)[O-])cc1NC(=O)C1CCCCC1C(=O)O` (stereo not given) belongs -9%.
On to `CCOC(=O)C(CCCCOc1ccc(C)c(C)c1)C(=O)OCC`, for which the displacement was 2.6%.
The same measure for `Cc1ccc(C)n1-c1ccc(C(=O)NN)c(Cl)c1`: -18.2%; for `C/C(CC(=O)Nc1cccc2ccccc12)=N\NC(=O)c1ccoc1C`: -5.3%; for `COc1ccc(N(CC(=O)Nc2cccc(SC)c2)S(=O)(=O)c2ccccc2)cc1`: 4.9%.
The same measure for `O=C(Cc1ccc(Cl)cc1)NNC(=O)c1ccccn1`: -17.9%.
To `CC1(C)OC(=O)C2(C(=O)O1)C1C3C4CC5C6C4C1C6C2C53` (stereo not given) belongs 7.6%; to `CC1c2ccccc2C2(CCCC2)CN1C(=O)Cc1ccccc1` (stereo not given), -9.7%; to `O=C1C2C3C=CC(O3)C2C(=O)N1c1ccc([N+](=O)[O-])cc1` (stereo not given), 1.6%.
For the compound `COc1ccc2c(c1)c(=O)oc1cc(OC(C)=O)ccc12`, the displacement was -3.8%.
The same measure for `Cc1ccc(OCCOc2cccc(C=O)c2)cc1C`: 10.6%.
To `COc1ccc(OC)c(S(=O)(=O)n2nnc3ccccc32)c1` belongs -4%; to `O/N=C/c1cn(-c2ccccc2)nc1-c1ccc(F)cc1`, 5.2%; to `COc1ccccc1N(CC(=O)NC(C)C)S(=O)(=O)c1ccccc1`, 3%.
The same measure for `COc1cc(/C=C2/SC(=S)N(c3ccccc3)C2=O)cc(OC)c1O`: 15%.
Regarding `CCN(CC)C(=S)Sc1nc(Nc2cccc(C)c2)nc(Nc2cccc(C)c2)n1`, the displacement is 6.1%.
The same measure for `O=c1[nH]cc(NN=c2c(=O)c3ccccc3c2=O)c(=O)[nH]1`: 1.4%.
Regarding `CCOc1cc(C(=O)N(C)c2ccccc2)cc(OCC)c1OCC`, the displacement was found to be 11.4%.
The same measure for `CCN1C(=O)/C(=C/c2c(OC)ccc3ccccc23)C(=O)NC1=S`: -4.6%; for `O=C(/C=C/Nc1ccccc1NS(=O)(=O)c1ccc([N+](=O)[O-])cc1)c1ccc2c(c1)OCO2`: 12.6%; for `CCCOc1ccc(/C=C2\C(=O)N(c3cccc(C(=O)O)c3)N=C2C)cc1OC`: 5.3%.
To `COc1cc(NC(=O)/C=C/c2ccc(C)cc2)c(OC)cc1Cl` belongs 10.6%; to `CCCN(CCC)Cc1cc2ccccc2c2c1COC2`, -6.5%; to `Cc1ccc(S(=O)(=O)Nc2ccccc2/C=N/n2cnnc2)cc1`, -0.6%.
The same measure for `O=c1c(-c2ccc(Cl)cc2)c(C(F)(F)F)oc2cc(O)ccc12`: 9.6%; for `Cc1c(C(=O)Nc2ccc3c(c2)Cc2ccccc2-3)cccc1[N+](=O)[O-]`: -8.3%; for `CC(C)(C)c1ccc(S(=O)(=O)N2CCCC2)cc1`: -10.9%.
For the compound `O=C1NC(=O)N(c2ccc(Cl)cc2)C(=O)/C1=C\c1ccc(-c2ccccc2[N+](=O)[O-])o1`, the displacement was 25.1%.
For the compound `O=C(NCc1ccco1)/C(=C/c1ccc(F)cc1)NC(=O)c1ccccc1`, the displacement is -9.6%.
For the compound `CCOC(=O)Nc1n[nH]c(NC(=O)OCC)c1[N+](=O)[O-]`, the displacement worked out at 10.5%.
To `CC(=O)c1cccc(N2C(=O)C3C(C2=O)C2(C)c4ccccc4C3(C)c3ccccc32)c1` (stereo not given) belongs 14.1%.
As for `C=CCSc1nnc2sc3ccccc3n12`, the displacement was determined as 4.1%.
Take `O=C(Oc1ccc(Oc2ccccc2)cc1)c1ccc(Br)o1`: the displacement came out at 4.4%.
To `CCOc1ccc(C=C2C(=O)NC(=O)NC2=O)cc1OCC` belongs 14.1%; to `CC(=O)Nc1ccccc1NC(=O)COc1ccccc1Cl`, -6.7%; to `O=C(Nc1ccccc1)NC1CCCC1`, -6.7%.
Consider `Cc1cc(OCC(=O)Nc2ccc(N3CCOCC3)c(Cl)c2)cc(C)c1Cl`, for which the displacement stood at 6.8%.
The same measure for `Cn1cc(-c2nn(-c3ccccc3)cc2/C=N/NC(N)=S)c2ccccc21`: -2.2%; for `COc1ccccc1-n1cnc2cc(NC(=O)c3ccccc3)ccc21`: 7.1%.
To `CCOC(=O)c1c(NC(=O)/C=C/c2ccc(C)o2)sc(C)c1C` belongs 15.4%.
The same measure for `O=C(O)CCN1C(=O)/C(=C/c2ccccc2F)SC1=S`: 8.8%.
With `COc1cccc2cc(-c3nc(-c4ccc(Cl)c(Cl)c4)cs3)c(=O)oc12`, the displacement stood at 0.1%.
The same measure for `COc1cc(/C=C/C(=O)NCc2ccc3c(c2)OCO3)cc(OC)c1OC`: 12.9%.
The same measure for `CC(=O)C1=C(O)C(=O)N(CC2CCCO2)C1c1cccc([N+](=O)[O-])c1` (stereo not given): 0.4%.
Take `CCOc1ccc(S(=O)(=O)N(CC(=O)NCC(C)C)c2ccc(C)cc2)cc1`: the displacement is -1%.
In the case of `O=C1NC(=S)N(c2ccc(Cl)cc2)C(=O)/C1=C/C=C/c1ccccc1`, the displacement is -13.5%.
The same measure for `CC(C)CC(=O)N1CCN(Cc2ccc3ccccc3c2)CC1`: -9.7%; for `Cc1cc(C(=O)c2ccccc2)c2[nH]cc(C)c2c1`: 21.1%; for `O=C(NN1CCOCC1)c1ccccc1F`: -1.3%.
Regarding `O=C(Nc1ccc(-c2cn3ccccc3n2)cc1)c1cccc(Br)c1`, the displacement was determined as 11.2%.
The same measure for `COc1ccccc1N1CCN(C(=O)c2cc([N+](=O)[O-])ccc2Cl)CC1`: -7.2%.
As for `COc1ccc(Br)c(C=Nc2cccc3nsnc23)c1O`, the displacement came out at 8.1%.
For the compound `COc1ccc(C2C(C(=O)OC(C)C)=C(C)N=c3s/c(=C/c4c[nH]c5ccccc45)c(=O)n32)cc1` (stereo not given), the displacement was 99.1%.
To `CC(C)C1C(C#N)(C#N)C(C#N)=C(N)C1(C)[N+](=O)[O-]` (stereo not given) belongs -9.6%.
The same measure for `CCOc1ccc2c(c1)NC(C)(C)c1ssc(=Nc3ccccc3O)c1-2`: 5%.
The same measure for `COc1cccc(OC)c1C(=O)NCc1ccccc1Cl`: 3.2%.
Regarding `Cc1c(C(=O)NCc2ccc3c(c2)OCO3)cccc1[N+](=O)[O-]`, the displacement is 7.1%.
The same measure for `COC(=O)c1c(C)oc2ccc(OCc3ccccc3F)cc12`: 7.1%; for `O=C(CC(Nc1ccc([N+](=O)[O-])cc1)c1ccc(Br)cc1)c1ccc(Cl)cc1` (stereo not given): 2.7%.
To `COc1ccccc1OCC(=O)N/N=C/c1ccccc1Sc1ccccc1` belongs 4.4%.
For the compound `Cc1ccc(CN2CCN(N=Cc3ccc(Br)s3)CC2)c(C)c1`, the displacement was -6.1%.
To `O=C(Nc1cccc(-c2nc3ncccc3o2)c1)c1ccc(Br)o1` belongs -2.9%.
The same measure for `CC(C)(C)c1ccc(/C=C/C(=O)n2cccn2)cc1`: 14.3%; for `CCOC(=O)c1ccccc1NC(=O)COc1ccc(C)cc1C`: -8.7%; for `CCOC(=O)N1CCN(C(=O)/C(=C/c2ccc(OC)cc2)NC(=O)c2ccccc2)CC1`: -5.3%.
Regarding `CCc1ccc(/C=N/NC(=O)c2c[nH]c3ccccc23)s1`, the displacement came out at 0.5%.
To `COc1ccccc1OCCNC(=O)c1ccc(OC)c([N+](=O)[O-])c1` belongs -5.8%; to `COc1ccc(N(CC(=O)Nc2ccc(Br)cc2)S(=O)(=O)c2ccc(C)cc2)c(OC)c1`, 4.7%; to `O=C1S/C(=C\c2cccc(Cl)c2)C(=O)N1Cc1ccccc1`, -2.8%.
The same measure for `O=C(CSc1ccc(Cl)cc1Cl)Nc1cccc([N+](=O)[O-])c1`: 10.6%; for `C[n+]1cccc(C(=O)NCCOC(=O)Cc2ccccc2)c1`: 11.1%.
The same measure for `O=C(c1cc(F)c(F)cc1Cl)N1CCN(c2ccc([N+](=O)[O-])c(N3CCCC3)c2)CC1`: 10.6%; for `COC(=O)c1ccccc1NC(=O)CN(c1cc(OC)ccc1OC)S(C)(=O)=O`: -1.5%; for `CCc1cccc(C)c1NC(=O)CSc1nc2c(c(=O)n(C)c(=O)n2C)n1C`: 9.6%.
Regarding `O=c1ccc2ccc(OCc3cccc(Cl)c3)cc2o1`, the displacement was 1.2%.
For the compound `O=C(c1c(Cl)cccc1Cl)N1CCN(c2cccc(Cl)c2)CC1`, the displacement worked out at 2.3%.
Take `CCOC(=O)C(=CNc1ccc(Cl)cc1C)C(=O)OCC`: the displacement is -9.1%.
To `Fc1ccccc1OCCn1ccnc1` belongs 3.9%.
To `Cc1cc2nc(-c3ccc(NC(=O)COc4ccccc4[N+](=O)[O-])cc3)oc2cc1C` belongs -0.7%; to `COCCNC(=O)c1cc(C(=O)OC)cc([N+](=O)[O-])c1`, -2.8%; to `O=C(O)CCN1C(=O)/C(=C\c2ccc3c(c2)OCO3)SC1=S`, -2.7%.
Take `CC(=O)Nc1ccc(-c2csc(N)n2)cc1`: the displacement came out at 2.8%.
As to `COc1ccc(N(CC(=O)Nc2ccc(Cc3ccncc3)cc2)S(=O)(=O)c2ccccc2)cc1`, the displacement was -11.2%.
On to `CN=C(NOCc1ccccc1)c1nonc1N`, for which the displacement came to 10.6%.
The same measure for `CC/C=N/OC(=O)c1c(F)c(F)c(F)c(F)c1F`: -3.5%.
